Source: US10358436B2, “Kinase inhibitors and method of treating cancer” (University Health Network, priority 2010, dated 2019)

Experiments:
Assay in all cases: cells
[1] = system: HCC1954 basal breast cancer cell line; settings: Homo sapiens, HCC1954, 120 h
[2] = system: A549 lung cancer cell line; settings: Homo sapiens, A549, 120 h, read-out: Cell Line GI50 Range A-549
[3] = system: SW620 colon cancer cell line; settings: Homo sapiens, SW-620, 120 h, read-out: Cell Line GI50 Range SW-620
[4] = system: MCF-7 luminal breast cancer cell line; settings: Homo sapiens, MCF7, 120 h
[5] = system: human mammary epithelial primary cells (HMEC); settings: 120 h, read-out: Cell Line GI50 Range HMEC
[6] = system: MDA-MB-468 basal breast cancer cell line; settings: Homo sapiens, MDA-MB-468, 120 h
[7] = read-out: Cell Line GI50 Range HCC-1954
[8] = read-out: Cell Line GI50 Range MCF-7
[9] = read-out: Cell Line GI50 Range MDA-MB-468
[10] = read-out: Cell Line GI50 Range HCC-1954, HCC1954 basal breast cancer cell line, SRB assay, 5 days
[11] = read-out: Cell Line GI50 Range MCF-7, MCF-7 luminal breast cancer cell line, SRB assay, 5 days
[12] = read-out: Cell Line GI50 Range MDA-MB-468, MDA-MB-468 basal breast cancer cell line, SRB assay, 5 days

CN(C)Cc1ccc(/C=C/c2n[nH]c3cc([C@@H]4C[C@@]45C(=O)N(CC(N)=O)c4ccccc45)ccc23)cc1 (relative stereo) [Example A160, 2-((1R*,2S*)-(E)-2-(3-(4-((dimethylamino)methyl)styryl)-1H-indazol-6-yl)-2′-oxospiro[cyclopropane-1,3′-indoline]-1′-yl)acetamide 2,2,2-trifluoroacetate]
GI50 [1, 7]: < 100 nM
GI50 [2]: < 100 nM
GI50 [3]: < 100 nM
GI50 [4, 8]: 1000 to 10000 nM
GI50 [5]: > 10000 nM
GI50 [6, 9]: < 100 nM

COc1ccc2c(c1)[C@]1(C[C@H]1c1ccc3c(/C=C/c4ccc(N5CCN(C(C)C)CC5)cc4)n[nH]c3c1)C(=O)N2 (relative stereo) [Example A189, (1R*,2S*)-(E)-2-(3-(4-(4-isopropylpiperazin-1-yl)styryl)-1H-indazol-6-yl)-5′-methoxyspiro[cyclopropane-1,3′-indolin]-2′-one 2,2,2-trifluoroacetate]
GI50 [1, 10]: < 100 nM
GI50 [3]: < 100 nM
GI50 [4, 11]: < 100 nM
GI50 [5]: 1000 to 10000 nM
GI50 [6, 9]: < 100 nM

CCN1Cc2ccc(/C=C/c3n[nH]c4cc([C@@H]5C[C@@]56C(=O)Nc5ccc(OC)cc56)ccc34)cc2C1 (relative stereo) [Example A190, (1R*,2S*)-2-(3-((E)-2-(2-ethylisoindolin-5-yl)vinyl)-1H-indazol-6-yl)-5′-methoxyspiro[cyclopropane-1,3′-indolin]-2′-one 2,2,2-trifluoroacetate]
GI50 [1, 10]: < 100 nM
GI50 [2]: < 100 nM
GI50 [4, 11]: < 100 nM
GI50 [5]: 1000 to 10000 nM
GI50 [6, 9]: < 100 nM

COc1ccc2c(c1)[C@@]1(C[C@@H]1c1ccc3c(-c4ccc(N5CCN(C)CC5)nc4)n[nH]c3c1)C(=O)N2 (stereo in doubt) [Example A16, (1S,2R)-5′-methoxy-2-(3-(6-(4-methylpiperazin-1-yl)pyridin-3-yl)-1H-indazol-6-yl)spiro[cyclopropane-1,3′-indolin]-2′-one]
GI50 [1, 10]: 1000 to 10000 nM
GI50 [2]: < 100 nM
GI50 [3]: 1000 to 10000 nM
GI50 [4, 8]: < 100 nM
GI50 [5]: > 10000 nM
GI50 [6, 12]: 100 to 1000 nM

COc1ccc2c(c1)[C@]1(C[C@H]1c1ccc3c(-c4ccc(N5CCN(C(C)C)CC5)cc4)n[nH]c3c1)C(=O)N2 [Example A97, (1R,2S)-2-(3-(4-(4-isopropylpiperazin-1-yl)phenyl)-1H-indazol-6-yl)-5′-Methoxyspiro[cyclopropane-1,3′-indolin]-2′-one 2,2,2-trifluoroacetate]
GI50 [1, 7]: 100 to 1000 nM
GI50 [2]: < 100 nM
GI50 [3]: < 100 nM
GI50 [4, 8]: < 100 nM
GI50 [5]: > 10000 nM
GI50 [6, 9]: < 100 nM

CCN1CCN(c2ccc(-c3n[nH]c4cc([C@@H]5C[C@@]56C(=O)Nc5ccc(OC)cc56)ccc34)cc2)CC1 [Example A99, (1R,2S)-2-(3-(4-(4-ethylpiperazin-1-yl)phenyl)-1H-indazol-6-yl)-5′-methoxyspiro[cyclopropane-1,3′-indolin]-2′-one 2,2,2-trifluoroacetate]
GI50 [1, 10]: 100 to 1000 nM
GI50 [2]: < 100 nM
GI50 [3]: < 100 nM
GI50 [4, 8]: < 100 nM
GI50 [5]: > 10000 nM
GI50 [6, 12]: < 100 nM

COc1ccc2c(c1)[C@]1(C[C@H]1c1ccc3c(/C=C/c4cccc(CN(C)C)c4)n[nH]c3c1)C(=O)N2 [Example A134, (1R,2S)-2-(3-(3-((dimethylamino)methyl)styryl)-1H-indazol-6-yl)-5′-methoxyspiro[cyclopropane-1,3′-indolin]-2′-one 2,2,2-trifluoroacetate]
GI50 [1, 10]: 100 to 1000 nM
GI50 [2]: < 100 nM
GI50 [4, 11]: < 100 nM
GI50 [5]: > 10000 nM
GI50 [6, 9]: < 100 nM

O=C1Nc2ccccc2[C@]12C[C@H]2c1ccc2c(/C=C/c3ccc(OCCN4CCOCC4)cc3)n[nH]c2c1 [Example A204, (1R,2S)-(E)-2-(3-(4-(2-morpholinoethoxy)styryl)-1H-indazol-6-yl)spiro[cyclopropane-1,3′-indolin]-2′-one 2,2,2-trifluoroacetate]
GI50 [1, 10]: > 10000 nM
GI50 [2]: < 100 nM
GI50 [3]: < 100 nM
GI50 [4, 11]: 1000 to 10000 nM
GI50 [6, 9]: < 100 nM

Read-outs that look alike come from different tables or passages of the source.
